Holding throughout (conditions): 20 mM HEPES pH 7.9, 100 mM NaCl, 1 mM DTT, 0.2 mg/mL BSA, 0.02% Triton X-100, 2% milk, 0.4 mg/mL salmon testes DNA; 1 h; temperature not stated; high values mean tight binding; double strand, one strand shown; sequences stand for … in GCCTAGCAC…GTGCTAGGTCTTGATTCGCTTGACGCTGCTG
One test addresses PU.1 (IVT) (UniProt P17947). Description: protein-binding microarray (PBM).
Test [1] addresses PU.1 (endogenous, THP-1 nuclear extract) (UniProt P17947). In words: nuclear extract protein-binding microarray (nextPBM).
Test [2] concerns the target T1, FLI1 (endogenous, THP-1 nuclear extract) (UniProt Q01543).
T1 sequence: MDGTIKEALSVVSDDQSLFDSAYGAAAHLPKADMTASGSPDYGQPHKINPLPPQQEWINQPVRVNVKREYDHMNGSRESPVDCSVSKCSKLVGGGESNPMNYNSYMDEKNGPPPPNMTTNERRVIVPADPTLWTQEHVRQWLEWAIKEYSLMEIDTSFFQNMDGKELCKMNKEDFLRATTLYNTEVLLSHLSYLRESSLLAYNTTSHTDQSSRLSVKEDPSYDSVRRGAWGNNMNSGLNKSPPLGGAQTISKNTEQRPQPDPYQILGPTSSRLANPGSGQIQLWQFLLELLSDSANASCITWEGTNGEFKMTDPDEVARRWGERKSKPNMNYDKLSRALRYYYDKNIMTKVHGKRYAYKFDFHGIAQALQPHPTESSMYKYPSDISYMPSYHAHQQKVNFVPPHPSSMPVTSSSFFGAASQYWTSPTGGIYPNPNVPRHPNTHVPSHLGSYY
The test is described as above.

For test [3], the system named is PU.1 (endogenous, THP-1 nuclear extract) + IRF8 (endogenous, THP-1 nuclear extract). The test is described as above.

Some of the results follow. For some assays here: At the low end of the ranking, values are background and their order means little. For some assays here: Measured with an extract: partners may take part in the binding.

For AGTTTTTAAACTATGCTGCA, the binding signal with PU.1 (IVT) was -0.082 z-score; in test [1] it was -0.529 z-score; in test [2] it was -0.318 z-score; in test [3], 0.264 z-score.

With CAGGAACAAGGAGCATGCTT, the binding signal with PU.1 (IVT) was determined as 0.599 z-score; in test [1], 0.579 z-score; in test [2], 0.145 z-score; in test [3] it was 0.364 z-score.

With CATTTGTTATCTTTAACCTG, the binding signal is -0.307 z-score with PU.1 (IVT), -0.555 z-score in test [1], -0.112 z-score in test [2] and -0.865 z-score in test [3].

For TTGGTGCTCATTTCCTTCCT, the binding signal is 0.23 z-score with PU.1 (IVT), 0.387 z-score in test [1], 2.81 z-score in test [2] and 0.618 z-score in test [3].

Turning to TTAGTAACCTGCAAGCACTT, the binding signal in the test with PU.1 (IVT) was -0.17 z-score; in test [1], -0.137 z-score; in test [2], -0.463 z-score; in test [3] it was -0.877 z-score.

As to TTCGTCATTAGAACTCAGCC, the binding signal in the test with PU.1 (IVT) was 0.143 z-score; in test [1], 0.431 z-score; in test [2], -0.899 z-score; in test [3], -1.17 z-score.

On to GCACTATAGGGTGACTATAG, for which the binding signal is -0.461 z-score in the test with PU.1 (IVT), -0.171 z-score in test [1], -0.205 z-score in test [2] and 0.221 z-score in test [3].

In the case of CTCCACACTCACCATTCTGA, the binding signal with PU.1 (IVT) was -0.74 z-score; in test [1], -0.488 z-score; in test [2], -0.783 z-score; in test [3], 0.493 z-score.

In the case of ATAACACATGTAGAGGAATA, the binding signal with PU.1 (IVT) is 0.508 z-score; in test [1], 0.428 z-score; in test [2], 0.0975 z-score; in test [3], 1.85 z-score.

Turning to ATGAAAAGAAAACCAAGATA, the binding signal in the test with PU.1 (IVT) was -0.172 z-score; in test [1], -0.592 z-score; in test [2], 0.0182 z-score; in test [3] it was 1.01 z-score.

For TGAATCCCGAAACACTCTAG, the binding signal was -0.322 z-score with PU.1 (IVT), -0.649 z-score in test [1], 0.121 z-score in test [2] and 0.888 z-score in test [3].

In the case of CAAACAGGAAACCAGTTTAC, the binding signal came out at 1.07 z-score in the test with PU.1 (IVT), 1.23 z-score in test [1], 4.15 z-score in test [2] and 0.969 z-score in test [3].

Turning to AAGAGTGATAAGGAAGTGCC, the binding signal in the test with PU.1 (IVT) is 4.08 z-score; in test [1] it was 4.43 z-score; in test [2], 2.01 z-score; in test [3], -0.785 z-score.

Turning to GAGGCTGGCTGTGGCTCAAC, the binding signal with PU.1 (IVT) is -0.64 z-score; in test [1] it was -0.393 z-score; in test [2], -0.522 z-score; in test [3], -0.426 z-score.

The values above are taken from article PMC6451091.
